According to publication PMC12135187, “A role for pH dynamics regulating transcription factor DNA-binding selectivity”:
Some of the results follow.

biological target: T1, FOXC2 DBD WT (UniProt Q99958 72-172); experiment: SELEX-seq (GST pull-down, four rounds, 16-nt random library); pH 7.0; 20 mM HEPES, 140 mM KCl, 0.05 mM TCEP-HCl, pH 7.0, room temperature, 30 min; 2.5 uM GST-FOXC2 DBD, 0.25 uM DNA library; high values mean tight binding; conditions: protein: recombinant; tags: N-terminal GST (pGEX-6P-2); dsDNA, one strand shown
T1 sequence: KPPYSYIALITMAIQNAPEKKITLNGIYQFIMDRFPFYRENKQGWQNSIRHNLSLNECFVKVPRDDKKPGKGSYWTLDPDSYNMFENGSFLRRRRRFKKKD
In short: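 GST-tagged FOXC2 DNA-binding domain (E. coli-expressed, glutathione-purified) was incubated with a DNA library carrying a 16 bp randomized region, at 0.25 μM DNA and 2.5 μM protein, for 30 min at RT in 20 mM HEPES, 140 mM KCl, 0.05 mM TCEP–HCl, pH 7. Complexes were captured on glutathione Sepharose beads, washed, heat-eluted and PCR-amplified over four rounds. Initial and selected libraries were Illumina MiniSeq sequenced. Relative enrichment came from the Bioconductor SELEX R package.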

Row | Sequence | binding signal
1 | AAGTTG | 0.237 relative enrichment
2 | CTACTA | 0.483 relative enrichment
3 | ACGAAA | 0.388 relative enrichment
4 | CATTGG | 0.413 relative enrichment
5 | TAACTA | 0.345 relative enrichment
6 | TCTAAC | 0.304 relative enrichment
7 | ACAACG | 0.242 relative enrichment
8 | GGAATA | 0.423 relative enrichment
9 | GGTTAA | 0.292 relative enrichment
10 | TCAACA | 0.333 relative enrichment
11 | TCTCAT | 0.37 relative enrichment
12 | TAGCAA | 0.292 relative enrichment
13 | AAGTAA | 0.451 relative enrichment
14 | AACATC | 0.392 relative enrichment
15 | GCACAA | 0.291 relative enrichment
16 | AGGTAA | 0.427 relative enrichment
17 | TTGCAC | 0.349 relative enrichment
18 | ATGATG | 0.505 relative enrichment
19 | CCTTTA | 0.295 relative enrichment
20 | ATCAGC | 0.434 relative enrichment
21 | AAAACT | 0.264 relative enrichment
22 | ACAAAG | 0.306 relative enrichment
23 | ACAATG | 0.338 relative enrichment
24 | ATTCAA | 0.335 relative enrichment
25 | CAAGTA | 0.449 relative enrichment
26 | TTCTAG | 0.58 relative enrichment
27 | ATTAGG | 0.356 relative enrichment
28 | GTATAC | 0.34 relative enrichment
29 | ATAATA | 0.285 relative enrichment
30 | TCAACT | 0.324 relative enrichment
